Experimental data: the supplement of paper PMC11417369
± gives the standard deviation of the averaged measurements. The list shows a part of the results.

What follows are sequences tested on PfAP2-LT AP2 domain (GST-tagged) (assay: gcPBM binding intensity (ln(normalized median fluorescence intensity)); higher = stronger DNA binding).
In short: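 After 1 h on an Agilent 4 × 180k array of primer-extended double-stranded 36-bp intergenic genomic probes and negative controls, bound GST-tagged P. falciparum DNA-binding domains were detected with Alexa488 anti-GST antibody and scanned at 488 nm. The domains had been expressed in E. coli, and binding took place in 1× PBS with 1% milk, 0.2 mg/ml BSA, 0.5% salmon testes DNA and 0.03% Triton X-100. Binding intensity is the highest Masliner-normalised natural-log median intensity across replicate spots of either probe orientation.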

Sequence	gcPBM binding intensity (ln)
AGCAGTCAGCAGGACAGTACACAGTAGCCAGTAACT [XGTACX_site1999]	9.08 ± 0.57
TTTATTTTATCATTTGCACACGCACGCCCACATAAA [CACACA_site353]	9.39 ± 0.42
CAAAATATATTGAATTGTACATAAAAATAAAAATTA [XGTACX_site4193]	8.63 ± 0.48
TTGTTTTTAGTTTATACACACCATATTAAAATAATG [CACACA_site5675]	8.77 ± 0.42
AATAAAATATACTATTGTACATATGGAACTACTTGA [XGTACX_site8928]	8.76 ± 0.48
ATTTATTATATATAGTGTACGTTCTTAATTATAATT [XGTACX_site7480]	8.85 ± 0.42
TAAAATATATTGCCAGTGCATAATATATGTAATTAT	8.71 ± 0.41
TGTATAAACCCACGTACACACACTAAGTATATCCAA [CACACA_site1605]	9.25 ± 0.38
TTTTTTAAATATTAAAAATGGGATCTTATAACATAT [GTGCAC_negctrl_site666]	8.21 ± 0.47
TAAACAAATAAATAAACACACAATATAGGTATATAT [CACACA_site7739]	9.01 ± 0.53
AACTAATAAAAAAAAAAAACATTAAACAGGACAAAT [XGTACX_negctrl_site287]	8.86 ± 0.54
TTATTTTTAACGTACGCACACATATAAATATATTTA [CACACA_site1976]	8.97 ± 0.35
TTGTATTACATAAATGTTCTTTATTATTTGATAAAA [CACACA_negctrl_site903]	8.35 ± 0.45
TATATAATATATTAATGTACTTAAAATATATTCTAT [XGTACX_site1235]	8.51 ± 0.35
GTGTAGTTAAAAAAAAGTACAGATTTTTTTTTTTTT [XGTACX_site849]	8.59 ± 0.46
ATAGAATATTGATATTGTACGTTATCTTAAAACAAT [XGTACX_site1702]	8.57 ± 0.33
AAAAAAAAAAAAACAAGTACAAAGGATAGAAAAAAA [XGTACX_site4133]	8.76 ± 0.45
ATAAGAACGTCTATGTGTACGCAGCAAAACTGAGTT [XGTACX_site6385]	8.92 ± 0.28
TTCTCAAAGAAGAAAAAGTTTTTTTAATTTTTCTTT [XGTACX_negctrl_site543]	8.03 ± 0.61
CAAAAAAAAAAAAAAAATAAATAAAGGAAATAAAAA [CACACA_negctrl_site20]	8.38 ± 0.68
ACATATAAAATGTATACACACAAATATTACATATAT [CACACA_site1472]	9.11 ± 0.45
AATAAAAAATATAACACAAATATGTATATATATATA [TGCATGCA_negctrl_site245]	9.29 ± 0.11

Sequence	gcPBM binding intensity (ln)
AACCAATTATATTTACGTACGTACGGTTTTTTATAT [XGTACX_site1291]	9.18 ± 0.45
ATATATTAATATACTCGTACATATTCTTATTGTGTA [XGTACX_site3728]	8.94 ± 0.45
AATATATTTTTTTTTTGTACATATTGTAAAATAATA [XGTACX_site6805]	8.43 ± 0.47
TATATATATTTCCAGTGTACTTATTTTTTAATCAAT [XGTACX_site8220]	8.71 ± 0.51
TCCTCAAAAAAATAAAATAATTTATACTTTTTTAAA [GTGCAC_negctrl_site724]	8.01 ± 0.54
CACATTTAGAAATAGTTTTATTTTGTATATTCTATT [CACACA_negctrl_site1382]	8.64 ± 0.4
TATACATTTATGTACACACACATATCTGTATATTTA [CACACA_site5617]	9.23 ± 0.42
GTATGTGTATGTGTATGTACATATGTATGTATAAAA [XGTACX_site8191]	9.19 ± 0.49
TTTTGTATATATCACATTAAAAGAAAAAAATATATG [GTGCAC_negctrl_site120]	8.22 ± 0.46
CATATAAAAAATATGGTGCAGTTTTTTTTTTTTTTT	8.82 ± 0.37
TATATATATAATGTTTGTACATATTAAATATATATG [XGTACX_site407]	8.61 ± 0.47
TAAATATTTTTATGGGTGCGTTCTTTAGCGCAATTT	8.59 ± 0.4
TTTTGCAATAATGTTGCACACTAAATAGTCATATAT [CACACA_site7977]	8.88 ± 0.4
ATTATTGTTGTTCATGTACACACTATAATAAAAGCA [CACACA_site4168]	8.78 ± 0.42
TTTATATTGATATATACACACATATACATCCTATTT [CACACA_site7442]	9.11 ± 0.42
ATTAATTATTTCAATGCATGTGAACACTATATATAA [TGCATGCA_site600]	8.84 ± 0.42
TAATTAAAATTATCTACACACCTTTATAAATATATA [CACACA_site3928]	8.48 ± 0.47
CTTATTAAAATTATTTGTACACAATATGTAAAAGTA [XGTACX_site7237]	8.46 ± 0.31
AAAAAAAGTTGATACTGTACTCGTGCATTATGAATA [XGTACX_site5558]	8.79 ± 0.4
AGGTATTTTCTTGTGACACACATATATATATATATT [CACACA_site2220]	9.26 ± 0.33
TTGTATATTATATGTACACACAATAAGTTAATATAA [CACACA_site909]	8.87 ± 0.38
TTCCTTTGTCCTAACTGTACTCAAATTTATTAGTGG [XGTACX_site226]	8.72 ± 0.49
